From publication PMC4336329 (PLoS ONE, 2015)
The whole screen tested about 310,000 compounds, of which about 2,200 (0.71%) showed an effect of 50% or more. Effects have a minus sign here. The list shows a part of the results.

target: human ether-à-go-go-related gene (hERG) potassium channel (human, UniProt Q12809); assay: primary screen, population patch clamp on CHO cells stably expressing hERG
Sequence (Q12809 whole entry, looked up): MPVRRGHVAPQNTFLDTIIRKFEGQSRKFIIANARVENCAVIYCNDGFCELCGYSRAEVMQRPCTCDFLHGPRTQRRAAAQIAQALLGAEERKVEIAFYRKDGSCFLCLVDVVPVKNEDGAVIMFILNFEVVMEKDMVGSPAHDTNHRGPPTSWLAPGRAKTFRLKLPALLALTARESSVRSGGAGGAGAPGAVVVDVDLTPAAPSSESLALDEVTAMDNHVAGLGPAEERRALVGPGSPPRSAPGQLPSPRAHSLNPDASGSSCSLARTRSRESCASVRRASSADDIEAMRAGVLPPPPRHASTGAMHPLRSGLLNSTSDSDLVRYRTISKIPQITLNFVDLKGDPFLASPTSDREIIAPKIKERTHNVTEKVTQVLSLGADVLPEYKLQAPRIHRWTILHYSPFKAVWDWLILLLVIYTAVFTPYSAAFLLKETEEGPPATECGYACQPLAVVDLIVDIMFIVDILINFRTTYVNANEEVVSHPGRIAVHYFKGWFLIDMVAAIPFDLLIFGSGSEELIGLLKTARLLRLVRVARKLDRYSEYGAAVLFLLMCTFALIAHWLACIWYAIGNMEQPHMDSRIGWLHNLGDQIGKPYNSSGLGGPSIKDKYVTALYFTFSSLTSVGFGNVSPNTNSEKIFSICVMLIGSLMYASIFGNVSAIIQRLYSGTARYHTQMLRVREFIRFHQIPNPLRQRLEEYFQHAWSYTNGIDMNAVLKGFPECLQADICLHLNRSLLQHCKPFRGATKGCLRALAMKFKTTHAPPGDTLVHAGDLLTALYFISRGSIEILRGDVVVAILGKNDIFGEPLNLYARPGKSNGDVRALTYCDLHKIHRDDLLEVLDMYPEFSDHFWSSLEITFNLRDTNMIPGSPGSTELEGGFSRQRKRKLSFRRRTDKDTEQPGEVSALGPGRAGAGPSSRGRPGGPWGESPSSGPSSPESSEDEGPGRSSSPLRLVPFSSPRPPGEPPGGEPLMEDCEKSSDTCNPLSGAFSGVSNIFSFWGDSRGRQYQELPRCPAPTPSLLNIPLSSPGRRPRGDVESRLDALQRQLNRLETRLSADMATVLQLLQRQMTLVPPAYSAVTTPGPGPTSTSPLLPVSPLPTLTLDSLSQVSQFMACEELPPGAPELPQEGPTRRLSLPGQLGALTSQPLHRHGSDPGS

Compound	hERG current change (%, negative = inhibition) at 1uM [%]
CC1(C)COC(/C=C/c2cccc([N+](=O)[O-])c2)=N1	6.63
Cl.O=C(c1ccco1)N1CCN(C(c2ccccc2)c2nnnn2C2CCCC2)CC1 (stereo not shown)	0.213
O=C(CSc1nc(=O)[nH]c2c1CCCC2)Nc1cc(C(F)(F)F)cc(C(F)(F)F)c1	14.5
O=C(Nc1nnc(-c2ccco2)o1)c1ccc(Cl)s1	7.99
CCN(CC)P(=O)(Nc1ccc([N+](=O)[O-])cc1)c1c(C)nn(CCC#N)c1NC(=O)c1ccc(Cl)cc1 (stereo not shown)	-26
Cc1c(N(C)S(=O)(=O)c2cccc(C(=O)NCC3CCCO3)c2)c(=O)n(-c2ccccc2)n1C (stereo not shown)	-19.3
CN(C)C(CNC(=O)c1c(F)cccc1Cl)c1ccco1 (stereo not shown)	24.5
COC(=O)c1ccc(/C=C/c2ccc3cccc(OC)c3n2)cc1	9.08
CCOc1ccc(S(=O)(=O)NC2CCCC2)cc1	13.2
Cn1cc(C=O)c2cc(F)ccc21	3.19
O=[N+]([O-])c1ccccc1S(=O)(=O)Nc1cccc(-c2ccc(N3CCCC3)nn2)c1	13.9
Cc1ccc(NC(=O)c2ccc(NCc3ccco3)c([N+](=O)[O-])c2)cc1Cl	9.79
COc1cccc(OC)c1OCCCCCc1c(C)n[nH]c1C.Cl	10.6
CC(C)CC1C(C#N)=C(N)SC(N)=C1C#N	10.8
Cc1nn(-c2ccccc2)c(NC(=O)c2ccccc2)c1Br	8.81
ON=C1c2ccccc2-c2ccccc21	10.2
O=C(Nc1c(C(=O)O)[nH]c2ccc(F)cc12)c1cccc(C(F)(F)F)c1	-0.0799
Cc1onc(-c2c(Cl)cccc2Cl)c1C(=O)N1CCN(Cc2ccccc2)CC1	7.89
CC(=O)Nc1sc(/C(C#N)=C\c2cccc(Cl)c2)nc1-c1ccc(C)cc1	4.11
COc1ccc(CCNc2nnc(Sc3nnnn3-c3ccccc3)s2)cc1OC	-9.73
Cn1c(-c2ccc(Cl)nc2)nc2ccccc21	10.1
Nc1nonc1-n1nnc(C(=O)N/N=C/c2cc(Cl)ccc2O)c1CN1CCCCCC1	10.7

Compound	hERG current change (%, negative = inhibition) at 1uM [%]
CC(=O)N1CCC(N(C(=O)Nc2ccc(C)c(C)c2)C2CCCC2)CC1	-4.91
O=C(NCCSCc1ccccc1)c1ccc(F)cc1	3.15
COc1ccccc1N1CCN(Cc2ccc(SC)cc2)CC1.O=C(O)C(=O)O	-53.8
CN(C)c1nc(NCc2ccccc2)nc(N/N=C/c2cccc(Br)c2)n1	22.7
CC(C)=CCC/C(C)=C/CCC(C)NCCN1CCNCC1 (stereo not shown)	-3.73
CC(C)CN(C(=O)C1=NN(c2ccccc2)C(=O)CC1)c1c(N)n(Cc2ccccc2)c(=O)[nH]c1=O	6.64
NC(=O)c1nsc(C(=O)N(c2ccc(Cl)cc2)C(C(=O)NCC2CCCO2)c2cccs2)c1N (stereo not shown)	10.7
O=C(COC(=O)Cc1ccc(F)cc1)Nc1ccc2[nH]c(=O)[nH]c2c1	15.4
Cc1ccccc1OCC(=O)Nc1cccc(S(=O)(=O)NC2=NCCCCC2)c1	9.96
COC(=O)C1(C(F)(F)F)N=C2Sc3ccccc3N2C(N2CCOCC2)=N1 (stereo not shown)	14.8
O=C(Nc1nc2c(s1)CCCC2)c1nn(Cc2ccccc2)c(=O)c2ccccc12	3.84
CC(C)/C(C=O)=C(/NC1CCCCC1)c1ccccc1	10.8
C=CCn1c(SCc2n[nH]c(=S)n2-c2ccccc2)nnc1-c1ccccc1	3.44
CC(C)CCN1CCN(Cc2ccsc2)CC1CCO (stereo not shown)	7.06
CCOc1ccc(C(=O)NC2CCN(C(=S)NCc3ccco3)CC2)cc1	-22.6
Cc1ccc(-c2csc(=S)n2CC(=O)OCC(=O)NCc2ccco2)cc1	1.59
COc1cc2c(cc1OC)CN(C(=O)c1cccs1)CC2	8.62
O=C(NN1CCOCC1)c1ccc(Cl)cc1	3.21
CCc1ccc(NC(=S)NCc2cccnc2)cc1	5.53
O=C(NC1CC1)c1c[nH]c2ccc(S(=O)(=O)Nc3cccc(C(F)(F)F)c3)cc2c1=O	5.59
CCN(c1ccccc1)S(=O)(=O)c1cc([N+](=O)[O-])ccc1N	15.3
CC(=O)Nc1cc(S(=O)(=O)Nc2ccccc2)c(C)cc1C	4.49

Compound	hERG current change (%, negative = inhibition) at 1uM [%]
CCOC(=O)c1[nH]c2ccccc2c1NC(C)=O	9.69
O=C(CCC(F)(F)F)N1CCCC(CO)(CCc2ccccc2)C1 (stereo not shown)	-3.42
COc1cc(/C=N/O)ccc1OCc1ccccc1Cl	12.7
Cc1ccc2nc3c(nc2c1)-c1ccccc1C3=O	7.74
O=C(NCc1ccncc1)C1CCC(=O)N(CCc2ccc(Cl)cc2)C1 (stereo not shown)	-34.4
Cc1c(C(=O)NCCCc2ccccc2)cccc1[N+](=O)[O-]	4.59
COc1ccc(C(=O)C[n+]2cccc3cc(C)ccc32)cc1.[Br-]	12
O=C(O)c1ccccc1C(=O)OCCCc1ccncc1	14.5
C=CCn1cc(-c2cccc(C(F)(F)F)c2)cc(C#N)c1=O	4.22
COc1ccc(N=C2S/C(=C\c3ccc(N4CCOCC4)o3)C(=O)N2CCc2c[nH]c3ccccc23)cc1	16
COCC(=O)Nc1cc(C)cn(Cc2cccc(C(F)(F)F)c2)c1=O	6.31
CN(C)c1nc(-c2ccccc2)cc(C(F)(F)F)c1C#N	10.7
COc1cc2ccccc2cc1C(=O)Nc1nc(C)c(C(C)=O)s1	18.7
Cc1cc2nc(-c3ccc[nH]c3=O)n(Cc3cccc(F)c3)c2cc1C	11
Cc1nnc2ccc(-c3cccc(NS(=O)(=O)c4ccccc4[N+](=O)[O-])c3)nn12	-1.85
CNC(=O)C1Cc2ccccc2CN1S(=O)(=O)c1ccc(OC)c(OC)c1 (stereo not shown)	12.9
COCCn1c(SC2CCOC2=O)nc2ccccc2c1=O (stereo not shown)	7.9
CCc1ccc(NC(=O)C(C)Oc2nnc(-c3cccs3)c(-c3cccs3)n2)cc1 (stereo not shown)	3.36
Cc1cccc(-n2c(C)cc(/C=N\NC(=O)c3ccco3)c2C)c1	3.71
Cc1cc(N=Nc2ccc(C)c(N=Nc3cc(C)c(N)cc3N)c2)c(N)cc1N	14.3
O=C1CN(C(=O)CNCc2ccc(Cl)cc2)c2ccccc2N1	7.02
Cc1ccc2c(c1)c1c(n2CC(O)CN2CCC(C)CC2)CCCC1 (stereo not shown)	-22.5

Compound	hERG current change (%, negative = inhibition) at 1uM [%]
CCN(CC)c1ccc(/C=N/N(c2ccccc2)c2ccccc2)c(O)c1	10.3
Cc1ccc(C)c(S(=O)(=O)Nc2ccc(C(=O)NCC(c3ccco3)N3CCCCC3)cc2)c1 (stereo not shown)	-6.15
CCCCC(CC)CNC(=O)c1cccs1 (stereo not shown)	6.99
CCOCCOC(=O)C1=C(C)N(C)C(=O)NC1c1ccccc1Cl (stereo not shown)	15.4
Oc1ccc(CN2CCN(c3ncccn3)CC2)cc1	11
COc1ccc(CNC(=O)C2CC(C)=CCC2C(=O)O)cc1 (stereo not shown)	9.45
COc1ccc(CSCC(=O)Nc2ccc(S(=O)(=O)N3CCCCCC3)cc2)cc1	4
O=C(CN1CCOCC1)NCC(=O)Nc1ccc(Br)cc1C(=O)c1ccccc1	-20
CC(OC(=O)Cn1cnc2c1c(=O)n(C)c(=O)n2C)C(=O)NC(C)c1ccc(Cl)cc1Cl (stereo not shown)	6.98
Cc1ccc(N(CC(=O)NC2CCC(C)CC2)S(=O)(=O)c2cccnc2)cc1 (stereo not shown)	6.88
O=C(CN(Cc1ccco1)C(=O)CNS(=O)(=O)c1ccc(F)cc1)NCc1ccccc1	1.5
Oc1c(C=C2N=c3ccccc3=N2)sc(=S)n1C1CCCC1	8.93
NC(=O)c1ccsc1NC(=O)COC(=O)CCOc1ccccc1	7.97
COC(CN(C)C(=O)C1CCCN(S(=O)(=O)c2ccc3c(c2)oc(=O)n3C)C1)OC (stereo not shown)	19.8
CCOc1ccc(C2C(C(=O)c3ccc(C)o3)=C(O)C(=O)N2CCCN(CC)CC)cc1 (stereo not shown)	12.1
Cc1ccc(C(=O)CSc2nnc(-c3snnc3C)n2C2CC2)cc1	13.7
Cc1onc(-c2ccccc2)c1C(=O)NCC1COc2ccccc2O1 (stereo not shown)	1.02
COc1ccccc1CNC(=O)N1CCN(c2ccccc2)CC1	2.54
CCOC(=O)C(C)(C)N(Cc1ccc(Cl)cc1)S(=O)(=O)c1ccc(Cl)c([N+](=O)[O-])c1	13.2
Cc1ccc(C(C)(C)C)cc1S(=O)(=O)Nc1nc2ccccc2nc1Cl	-16.8
COc1cccc(-c2cc(C(F)(F)F)n3nc(C(=O)Nc4c(C)n(C)n(-c5ccccc5)c4=O)cc3n2)c1	9.18
CC(Sc1ncn[nH]1)C(=O)Nc1cc(C(F)(F)F)ccc1Cl (stereo not shown)	9.43
